From the supplement of paper PMC12217912
This is one part of the list. The full chains were built here from the parent and the listed change. Values near 0.05 are background.

B1: TEV protease; numbered along this chain (parent)
chain: MGESLFKGPRDYNPISSSICHLTNESDGHTTSLYGIGFGPFIITNKHLFRRNNGTLVVQSLHGVFKVKDTTTLQQHLVDGRDMIIIRMPKDFPPFPQKLKFREPQREERICLVTTNFQTKSMSSMVSDTSCTFPSGDGIFWKHWIQTKDGQCGSPLVSTRDGFIVGIHSASNFTNTNNYFTSVPKNFMELLTNQEAQQWVSGWRLNADSVLWGGHKVFMVKPEEPFQPVKEATQL

Variants of: B1
Experiment: raw area under fraction-flipped curve 0-4 h after induction (AUC4h, not background-subtracted), DNA-recorder readout of cleavage of the substrate (dimensionless); higher = more cleavage of the substrate by the protease variant
Conditions: temperature: 34 °C; time window: 0-4 h after rhamnose induction
Description: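 In vivo DNA recorder in E. coli TOP10(DE3) ΔrhaA at 34 °C. Each TEVp single-site mutant (parent TEVp 0) is paired with a single-site variant of the 7-mer TEVs (canonical ENLYFQ|S). The substrate sits between flexible linkers in a Bxb1-sfGFP-TEVs-SsrA fusion, so cleavage stabilises Bxb1 and speeds flipping of a recombination array, read by NGS. The value is the raw area under the fraction-flipped curve over 0-4 h after rhamnose induction (AUC4h), with ≥20 reads per time point. It is not background-subtracted; inactive controls average about 0.047.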
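Further: Bxb1 expression induced with 0.2% (w/v) L-rhamnose at OD600 near 0.5, cultures sampled hourly, flipped fraction per protease–substrate barcode pair counted by paired-end Illumina sequencing.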

MGESLFKGPRDYNPISSSICHLTNESDGHTTSLYGIGFGPFIITNKHLFRRNNGTLVVQSLHGVFKVKDTTTLQQHLVDGRDMIIIRMPKDFPPFPQKLKFREPQREERICLVTTNFQTKSMSSMVSDTSCTFPSGDGIFWKHWIQTKDGQCGSPLVSTRDGFIVGIHSASNFTNTNFYFTSVPKNFMELLTNQEAQQWVSGWRLNADSVLWGGHKVFMVKPEEPFQPVKEATQL [N178F]
area with substrate ENLYCQS: 0.234 | area with substrate ENLYGQS: 0.0685 | area with substrate ENLYNQS: 0.142 | area with substrate ENLYPQS: 0.148 | area with substrate ENLYSQS: 0.0738 | area with substrate ENLYWQS: 0.161

MGESLFKGPRDYNPISSSICHLTNESDGHTTSLYGIGFGPFIITNKHLFRRNNGTLVVQSLHGVFKVKDTTTLQQHLVDGRDMIIIRMPKDFPPFPQKLKFREPQREERICLVTTNFQTKSMSSMVSDTSCTFPSGDGIFWKHWIQTKDGQCGSPLVSTRDGFIVGIHSASNFTNTNNVFTSVPKNFMELLTNQEAQQWVSGWRLNADSVLWGGHKVFMVKPEEPFQPVKEATQL [Y179V]
area with substrate ENLYCQS: 0.0558 | area with substrate ENLYDQS: 0.105 | area with substrate ENLYEQS: 0.0599 | area with substrate ENLYGQS: 0.0642 | area with substrate ENLYHQS: 0.0627 | area with substrate ENLYKQS: 0.0532 | area with substrate ENLYLQS: 0.0586 | area with substrate ENLYNQS: 0.0561 | area with substrate ENLYQQS: 0.0629 | area with substrate ENLYVQS: 0.0683 | area with substrate ENLYYQS: 0.0409

MGESLFKGPRDYNPISSSICHLTNESDGHTTSLYGIGFGPFIITNKHLFRRNNGTLVVQSLHGVFKVKDTTTLQQHLVDGRDMIIIRMPKDFPPFPQKLKFREPQREERICLVTTNFQTKSMSSMVSDTSCTFPSGDGIFWKHWIQTKDGQCGSPLVSTRDGFIVGIHSASNFTNTNNYDTSVPKNFMELLTNQEAQQWVSGWRLNADSVLWGGHKVFMVKPEEPFQPVKEATQL [F180D]
area with substrate ENLYCQS: 0.0511 | area with substrate ENLYDQS: 0.0474 | area with substrate ENLYEQS: 0.0555 | area with substrate ENLYIQS: 0.0524 | area with substrate ENLYKQS: 0.0566 | area with substrate ENLYMQS: 0.0496 | area with substrate ENLYPQS: 0.0409 | area with substrate ENLYQQS: 0.0422 | area with substrate ENLYRQS: 0.0557 | area with substrate ENLYSQS: 0.0435 | area with substrate ENLYTQS: 0.0435 | area with substrate ENLYVQS: 0.0787

MGESLFKGPRDYNPISSSICHLTNESDGHTTSLYGIGFGPFIITNKHLFRRNNGTLVVQSLHGVFKVKDTTTLQQHLVDGRDMIIIRMPKDFPPFPQKLKFREPQREERICLVTTNFQTKSMSSMVSDTSCTFPSGDGIFWKHWIQTKDGQCGSPLVSTRDGFIVGIHSASNFTNTNNYFSSVPKNFMELLTNQEAQQWVSGWRLNADSVLWGGHKVFMVKPEEPFQPVKEATQL [T181S]
area with substrate ENLYCQS: 0.0886 | area with substrate ENLYDQS: 0.0378 | area with substrate ENLYEQS: 0.0828 | area with substrate ENLYGQS: 0.0602 | area with substrate ENLYHQS: 0.0551 | area with substrate ENLYIQS: 0.0796 | area with substrate ENLYKQS: 0.0681 | area with substrate ENLYLQS: 0.0663 | area with substrate ENLYPQS: 0.0649 | area with substrate ENLYQQS: 0.0638 | area with substrate ENLYTQS: 0.0774

MGESLFKGPRDYNPISSSICHLTNESDGHTTSLYGIGFGPFIITNKHLFRRNNGTLVVQSLHGVFKVKDTTTLQQHLVDGRDMIIIRMPKDFPPFPQKLKFREPQREERICLVTTNFQTKSMSSMVSDTSCTFPSGDGIFWKHWIQTKDGQCGSPLVSTRDGFIVGIHSASNFTNTNNYFTSVPKSFMELLTNQEAQQWVSGWRLNADSVLWGGHKVFMVKPEEPFQPVKEATQL [N186S]
area with substrate ENLYCQS: 0.0849 | area with substrate ENLYEQS: 0.0535 | area with substrate ENLYGQS: 0.09 | area with substrate ENLYHQS: 0.0621 | area with substrate ENLYIQS: 0.126 | area with substrate ENLYKQS: 0.0731 | area with substrate ENLYMQS: 0.0814 | area with substrate ENLYNQS: 0.0598 | area with substrate ENLYQQS: 0.0545 | area with substrate ENLYRQS: 0.0398 | area with substrate ENLYTQS: 0.109

MGESLFKGPRDYNPISSSICHLTNESDGHTTSLYGIGFGPFIITNKHLFRRNNGTLVVQSLHGVFKVKDTTTLQQHLVDGRDMIIIRMPKDFPPFPQKLKFREPQREERICLVTTNFQTKSMSSMVSDTSCTFPSGDGIFWKHWIQTKDGQCGSPLVSTRDGFIVGIHSASNFTNTNNYFTSVPKNFIELLTNQEAQQWVSGWRLNADSVLWGGHKVFMVKPEEPFQPVKEATQL [M188I]
area with substrate ENLYCQS: 0.0815 | area with substrate ENLYDQS: 0.0693 | area with substrate ENLYGQS: 0.0712 | area with substrate ENLYKQS: 0.0515 | area with substrate ENLYMQS: 0.0797 | area with substrate ENLYPQS: 0.0758 | area with substrate ENLYQQS: 0.0671 | area with substrate ENLYRQS: 0.0684 | area with substrate ENLYSQS: 0.0587 | area with substrate ENLYTQS: 0.0655 | area with substrate ENLYVQS: 0.108 | area with substrate ENLYYQS: 0.0912

MGESLFKGPRDYNPISSSICHLTNESDGHTTSLYGIGFGPFIITNKHLFRRNNGTLVVQSLHGVFKVKDTTTLQQHLVDGRDMIIIRMPKDFPPFPQKLKFREPQREERICLVTTNFQTKSMSSMVSDTSCTFPSGDGIFWKHWIQTKDGQCGSPLVSTRDGFIVGIHSASNFTNTNNYFTSVPKNFMWLLTNQEAQQWVSGWRLNADSVLWGGHKVFMVKPEEPFQPVKEATQL [E189W]
area with substrate ENLYCQS: 0.0704 | area with substrate ENLYDQS: 0.0539 | area with substrate ENLYEQS: 0.0858 | area with substrate ENLYHQS: 0.0716 | area with substrate ENLYIQS: 0.101 | area with substrate ENLYLQS: 0.0748 | area with substrate ENLYMQS: 0.096 | area with substrate ENLYPQS: 0.0638 | area with substrate ENLYQQS: 0.0758 | area with substrate ENLYRQS: 0.0636 | area with substrate ENLYSQS: 0.0717 | area with substrate ENLYVQS: 0.128 | area with substrate ENLYWQS: 0.0752

MGESLFKGPRDYNPISSSICHLTNESDGHTTSLYGIGFGPFIITNKHLFRRNNGTLVVQSLHGVFKVKDTTTLQQHLVDGRDMIIIRMPKDFPPFPQKLKFREPQREERICLVTTNFQTKSMSSMVSDTSCTFPSGDGIFWKHWIQTKDGQCGSPLVSTRDGFIVGIHSASNFTNTNNYFTSVPKNFMEELTNQEAQQWVSGWRLNADSVLWGGHKVFMVKPEEPFQPVKEATQL [L190E]
area with substrate ENLYCQS: 0.0742 | area with substrate ENLYDQS: 0.0673 | area with substrate ENLYEQS: 0.0647 | area with substrate ENLYGQS: 0.0646 | area with substrate ENLYHQS: 0.0611 | area with substrate ENLYKQS: 0.0554 | area with substrate ENLYMQS: 0.0745 | area with substrate ENLYNQS: 0.0731 | area with substrate ENLYPQS: 0.0798 | area with substrate ENLYQQS: 0.0558 | area with substrate ENLYRQS: 0.0668 | area with substrate ENLYSQS: 0.0742 | area with substrate ENLYVQS: 0.12 | area with substrate ENLYWQS: 0.0849 | area with substrate ENLYYQS: 0.0633

MGESLFKGPRDYNPISSSICHLTNESDGHTTSLYGIGFGPFIITNKHLFRRNNGTLVVQSLHGVFKVKDTTTLQQHLVDGRDMIIIRMPKDFPPFPQKLKFREPQREERICLVTTNFQTKSMSSMVSDTSCTFPSGDGIFWKHWIQTKDGQCGSPLVSTRDGFIVGIHSASNFTNTNNYFTSVPKNFMESLTNQEAQQWVSGWRLNADSVLWGGHKVFMVKPEEPFQPVKEATQL [L190S]
area with substrate ENLYCQS: 0.0674 | area with substrate ENLYEQS: 0.0771 | area with substrate ENLYGQS: 0.0631 | area with substrate ENLYHQS: 0.0764 | area with substrate ENLYLQS: 0.0698 | area with substrate ENLYMQS: 0.0777 | area with substrate ENLYPQS: 0.0504 | area with substrate ENLYQQS: 0.0736 | area with substrate ENLYSQS: 0.1 | area with substrate ENLYVQS: 0.093

MGESLFKGPRDYNPISSSICHLTNESDGHTTSLYGIGFGPFIITNKHLFRRNNGTLVVQSLHGVFKVKDTTTLQQHLVDGRDMIIIRMPKDFPPFPQKLKFREPQREERICLVTTNFQTKSMSSMVSDTSCTFPSGDGIFWKHWIQTKDGQCGSPLVSTRDGFIVGIHSASNFTNTNNYFTSVPKNFMELLTEQEAQQWVSGWRLNADSVLWGGHKVFMVKPEEPFQPVKEATQL [N193E]
area with substrate ENLYCQS: 0.0862 | area with substrate ENLYDQS: 0.0592 | area with substrate ENLYEQS: 0.0698 | area with substrate ENLYGQS: 0.0694 | area with substrate ENLYHQS: 0.0645 | area with substrate ENLYIQS: 0.0842 | area with substrate ENLYNQS: 0.0631 | area with substrate ENLYPQS: 0.0632 | area with substrate ENLYQQS: 0.0634 | area with substrate ENLYVQS: 0.106
